# Article PMC4336329 (PLoS ONE, 2015)
# Screen size: about 310,000 compounds; about 14,000 (4.5%) showed an effect of 50% or more. Effects have a minus sign here. This is one part of the list.
# Molecular target: human ether-à-go-go-related gene (hERG) potassium channel (human, UniProt Q12809)
# Test: primary screen, population patch clamp on CHO cells stably expressing hERG
# 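Further: peak tail current of the secondary pulse compared with the same well before compound.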
# Chain of human ether-à-go-go-related gene (hERG) potassium channel (Q12809 whole entry, looked up): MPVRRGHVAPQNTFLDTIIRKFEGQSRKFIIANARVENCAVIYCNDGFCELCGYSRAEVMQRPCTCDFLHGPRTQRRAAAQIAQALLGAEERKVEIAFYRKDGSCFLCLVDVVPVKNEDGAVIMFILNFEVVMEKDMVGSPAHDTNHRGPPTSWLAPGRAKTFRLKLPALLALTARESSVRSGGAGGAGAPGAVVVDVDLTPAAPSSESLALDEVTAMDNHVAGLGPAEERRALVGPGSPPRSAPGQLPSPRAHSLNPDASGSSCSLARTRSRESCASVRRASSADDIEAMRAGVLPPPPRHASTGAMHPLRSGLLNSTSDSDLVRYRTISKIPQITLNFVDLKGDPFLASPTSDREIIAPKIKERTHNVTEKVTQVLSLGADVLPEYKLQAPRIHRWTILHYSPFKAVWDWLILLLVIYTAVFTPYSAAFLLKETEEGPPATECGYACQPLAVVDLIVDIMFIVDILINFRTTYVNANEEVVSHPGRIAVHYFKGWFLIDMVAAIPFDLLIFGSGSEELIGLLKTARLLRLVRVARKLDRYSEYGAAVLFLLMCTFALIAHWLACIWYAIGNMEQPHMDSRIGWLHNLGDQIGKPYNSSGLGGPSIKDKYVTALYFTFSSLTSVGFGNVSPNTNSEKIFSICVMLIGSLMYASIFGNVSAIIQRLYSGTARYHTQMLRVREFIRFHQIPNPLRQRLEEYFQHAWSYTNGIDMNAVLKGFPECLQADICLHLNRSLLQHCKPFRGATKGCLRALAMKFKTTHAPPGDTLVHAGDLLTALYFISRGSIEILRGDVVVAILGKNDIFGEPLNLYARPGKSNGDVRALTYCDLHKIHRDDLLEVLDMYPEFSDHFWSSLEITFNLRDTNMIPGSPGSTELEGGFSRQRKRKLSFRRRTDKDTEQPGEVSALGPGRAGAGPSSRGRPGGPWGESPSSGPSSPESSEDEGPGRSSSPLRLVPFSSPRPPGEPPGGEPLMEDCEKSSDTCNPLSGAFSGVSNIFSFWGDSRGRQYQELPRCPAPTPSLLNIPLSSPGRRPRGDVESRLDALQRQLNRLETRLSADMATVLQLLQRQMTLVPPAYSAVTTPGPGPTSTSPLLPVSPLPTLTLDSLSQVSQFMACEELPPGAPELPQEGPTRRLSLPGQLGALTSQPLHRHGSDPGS
row,SMILES,"hERG current change (%, negative = inhibition) at 10uM [%]"
1,Cc1ccc(N2CCN(S(=O)(=O)c3nnc(NC(=O)c4ccccc4)s3)CC2)cc1,22
2,O=C1c2cc(S(=O)(=O)NCCO)ccc2-c2ccc(S(=O)(=O)NCCO)cc21,-1.1
3,Cc1cc(=O)oc2c1c(C)nn2-c1ccc(Cl)cc1,19.8
4,COCc1c(C(=O)N2CCN(Cc3ccc(C#N)cc3)CC2)oc2ccccc12,-70.2
5,CC1(C)Cc2noc(N)c2C(C)(C)N1OC(=O)c1cccs1,6.58
6,COc1cc(C(=O)NNC(=O)CN2C(=O)NC3(CCCC3)C2=O)cc(OC)c1OC,3.38
7,CCC(C(=O)NCc1ccco1)N(C(=O)CNS(=O)(=O)c1ccccc1)c1ccccc1C (stereo not drawn),-7.72
8,O=C(c1cccs1)N1CCN=C1SCc1ccc(Cl)cc1,6.12
9,CN(C)C(=O)/C(=C/c1ccc(-c2cccc([N+](=O)[O-])c2)o1)NC(=O)c1ccccc1,-21.3
10,O=C(COC(=O)Cc1ccccc1[N+](=O)[O-])NCc1ccc(F)cc1,-8.6
11,COc1ccc(CNC(=O)CN(C(=O)c2csnn2)c2ccc(F)cc2)cc1,-5.15
12,CCCOc1ccc(Cl)cc1CNc1ccccc1,1.58
13,COc1ccc(CN(Cc2cccn2C)C(=O)c2cc3cc(OC)ccc3[nH]2)cc1,-8.11
14,O=C(CCc1ccccc1)NC(=S)Nc1ccccc1[N+](=O)[O-],-19.7
15,COC(=O)Cc1c(C)c2ccc(OCC(=O)c3ccc(OC)c(OC)c3)cc2oc1=O,16.5
16,O=c1[nH]c(=O)n(CCc2ccccc2)c(O)c1C=NC1CC1,3.17
17,CC1CCCN(CCCNC(=O)CN2C(=O)COc3ccccc32)C1 (stereo not drawn),-4.59
18,COc1cccc(NC(=O)CN(C)C(=O)c2cc(C)oc2C)c1,6.56
19,COC(=O)[C@@]12CCCN1[C@H](c1ccc(-c3cccc(Cl)c3)cc1)[C@H]1C(=O)N(C)C(=O)[C@H]12.O=C(O)C(F)(F)F,-29.6
20,COc1ccc(C(=O)COC(=O)CN2C(=O)C3C4C=CC(C4)C3C2=O)cc1 (stereo not drawn),-2.83
21,CC(=O)NC12CC3CC(C1)CC(C(=O)Nc1nccs1)(C3)C2,6.58
22,O=C(N/N=C/c1ccccc1)NC1CCCCC1,1.81
23,O=S(=O)(NC1CCCCC1)c1cccc(-c2nnc(-c3ccccc3)o2)c1,-36.4
24,CCSc1nnc(-c2cc(Br)ccc2N)c(=O)[nH]1,21.4
25,COC(=O)c1nn(-c2ccc(C)cc2)c2nnc(Cc3ccccc3)c(=O)n12,9.19
26,CC1(C(=O)OCC(=O)c2c[nH]c3ccccc23)CC1(Cl)Cl (stereo not drawn),22
27,CC1=NN(c2ccc(F)cc2)C(=O)C1C(c1cccc(O)c1)c1c(C)[nH]n(-c2ccc(F)cc2)c1=O (stereo not drawn),9.02

row,SMILES,"hERG current change (%, negative = inhibition) at 10uM [%]"
1,COCCn1nnnc1SCC(=O)N1CCCCC1,25.2
2,Cc1ccc2c(c1)C1CN(C)CCC1N2S(=O)(=O)c1ccc(Oc2ccc([N+](=O)[O-])cc2)cc1 (stereo not drawn),-21.3
3,O=C(CCS(=O)(=O)c1cccc2nonc12)NC1CCCCCC1,-2.03
4,O=C(COC(=O)c1ccc2c(c1)OCO2)Nc1cccc(F)c1,12.7
5,CC(=O)c1ccc(NC(=O)C(C)Sc2n[nH]c(-c3cccnc3)n2)cc1 (stereo not drawn),15.5
6,CC(C)N1CCN(Cc2ccc(C#CC(C)(C)O)cc2)CC1CCO (stereo not drawn),13.4
7,COc1ccc(-c2c(C)sc(NC(=O)c3ccnn3C)c2C#N)cc1,-11
8,COc1ccc2ccc(=O)oc2c1CC(O)C(C)(C)O (stereo not drawn),1.16
9,Nc1ccccc1OCCOCCOc1ccccc1N,8.54
10,COCC(C)NC(=O)CSc1nc2cc(S(=O)(=O)N3CCCCC3)ccc2o1 (stereo not drawn),-4.68
11,NC(=O)CC(NC(=O)c1ccc(Br)cc1)c1ccc(N2CCN(c3ccccc3)CC2)c([N+](=O)[O-])c1 (stereo not drawn),-7.04
12,Cn1c(=O)c(C(=O)NNC(=O)c2ccc(Br)cc2)c(O)c2ccccc21,12.2
13,COC(=O)c1ccc(NC(=O)CSc2nnc(-c3ccncc3)n2C)cc1,-9.59
14,CCN1CCN(C(=O)CCc2nc3ccccc3n2-c2ccccc2)CC1,-23.3
15,C=CCN1C[C@@H](C)N(C(c2ccc(C(=O)N(CC)CC)cc2)c2cccc(OC)c2)C[C@@H]1C (stereo partly drawn),-65.3
16,O=C(N/N=C/c1cc2c(cc1[N+](=O)[O-])OCO2)c1ccc2c(c1)OCO2,22.1
17,COc1ccc(Cl)cc1C(=O)NNC(=O)CSc1nnc2ccccn12,5.24
18,CCn1c(SCC(=O)N/N=C(\C)c2ccncc2)nnc1-c1ccc(C)cc1,-20.6
19,O=C(CN1CCN(c2ccc(O)cc2)CC1)N(C1CC1)C1CCS(=O)(=O)C1 (stereo not drawn),12
20,Cl.OC(c1ccccc1)(c1ccc(F)cc1)C(c1ccccc1)N1CCOCC1 (stereo not drawn),16.8
21,O=C1C2C3CCC(C3)C2C(=O)N1Cc1ccccc1 (stereo not drawn),-1.12
22,Cc1cc(C(=O)NNC(=O)Nc2ccc(Cl)cc2)no1,14.3
23,Cc1c(NC(=O)c2nn3c(C(F)(F)F)cc(-c4ccccc4)nc3c2Cl)c(=O)n(-c2ccccc2)n1C,-1.17
24,CCCCNC(=O)c1onc(CSc2ccc(F)c(F)c2)c1C(=O)NCCCC,-4.61
25,O=C(NCC(c1ccco1)N1CCCC1)c1sc2ccccc2c1Cl (stereo not drawn),-13.3
26,CSCCC(NS(=O)(=O)c1ccc(C)cc1)C(=O)N1CCN(S(=O)(=O)c2ccc(F)cc2)CC1 (stereo not drawn),-32.2
27,CC(C)Cc1ccc(C(C)C(N)=NCCc2ccccc2)cc1.Cl (stereo not drawn),-67.5
